The values below come from PMC12040169 (PLOS Biology, 2025).

The other results are listed elsewhere or left out.

For this test, the system named is T1, C. trachomatis L2/434/Bu expressing GFP (CTL2-GFP).
T1 construct: L2/434/Bu GFP intracellular growth in HeLa cells
Set-up: species or system HeLa; C. trachomatis total inclusion area by high-content imaging, normalised to DMSO. Conditions: total inclusion area; 28.5 h, 10 µM; inhibitor. The procedure, abridged:
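Bulk GFP and resorufin signals were read first. Wells were then fixed, stained with Hoechst and imaged to detect GFP inclusions and host nuclei. MICs followed the previously described calculation.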
Take `Cc1ccc(C)c(NC(=O)CSc2nnc(CCc3ccccc3)n2C)c1` [CBK266365]: the “% of control remaining” value came out at 98.0743.

Regarding `CC1CN(Cc2ccccc2)CCN1c1cnccn1` (centres unmarked) [CBK013684], the “% of control remaining” value was 60.1322.

`COc1ccc(-c2cnc3[nH]c(=O)n(Cc4ccccc4)c3n2)cc1` [CBK064210]: the “% of control remaining” value is 111.367.

Regarding `CCCc1cc(C(=O)NC(c2ccccc2)c2cccnc2)[nH]n1` (centres unmarked) [CBK282462], the “% of control remaining” value is listed as 133.939.

Regarding `CC(NC(=O)Cn1cnc2ccccc21)c1ccccn1` (centres unmarked) [CBK281884], the “% of control remaining” value worked out at 98.3438.

As for `O=C1CCCN1c1ccc(CN2CCN(C3CCCC3)C(=O)C2)cc1` [CBK281908], the “% of control remaining” value came to 111.247.

As for `CCOC(=O)C(NC(=O)c1c(C)nn(C)c1C)c1cccc(C)c1C` (centres unmarked) [CBK304253], the “% of control remaining” value is listed as 41.0639.

For `CCOC(=O)c1cnn2c(C)cc(C)nc12` [CBK101119], the “% of control remaining” value was 87.36.

`COC(=O)C(NC(=O)c1cnc(-c2cccc(C(F)(F)F)c2)c(-c2ccncc2)c1)c1ccccc1` (centres unmarked) [CBK037624]: the “% of control remaining” value is listed as 119.207.

Consider `COc1ccc(CN2CCCC(c3nc(C)n4ccccc34)C2)cc1` (centres unmarked) [CBK282984], for which the “% of control remaining” value is recorded as 84.9408.

On to `c1ccc(CN2CCN(c3ccc(Nc4cc(-c5ccncc5)ncn4)cc3)CC2)cc1` [CBK037727], for which the “% of control remaining” value is reported as 118.761.

As to `O=C(O)Cc1csc(SCc2cc(F)cc3c2OC(c2ccccc2)OC3)n1` (centres unmarked) [CBK295158], the “% of control remaining” value turned out to be 133.792.

Turning to `COc1cccc([C@H]2CC[C@H](N(CCN(C)C)C(=O)Nc3cc(F)ccc3F)CC2)c1OC` [CBK050184], the “% of control remaining” value was 51.612.

With `CCc1nnc(COC(=O)c2ccccc2NC(=O)Cc2ccccc2)o1` [CBK296762], the “% of control remaining” value turned out to be 76.9812.

As for `CCNC(=O)N1CCc2c([nH]c3ccc(OC)cc23)C12CCN(CCOc1ccccc1)C2` (centres unmarked) [CBK061690], the “% of control remaining” value was determined as 94.49.

As for `COc1cncc(C(NC(=O)Cc2cn3ccsc3n2)[C@H]2C[C@H](O)C2)c1` (some centres unmarked) [CBK306642], the “% of control remaining” value was 58.5883.

Turning to `CNS(=O)(=O)c1cc(C(=O)NC2CCCc3ccccc32)n(C)c1` (centres unmarked) [CBK305048], the “% of control remaining” value was 57.2904.

Take `CC1CCCN(c2nc3nc[nH]c(=O)c3s2)C1` (centres unmarked) [CBK288120]: the “% of control remaining” value was determined as 127.962.

With `COC(=O)c1ccccc1S(=O)(=O)Nc1nnn[nH]1` [CBK021321], the “% of control remaining” value was 91.0477.

Take `Cc1nc(C)n(C(C)CNC(=O)Cc2coc3cc(C)c(C)cc23)n1` (centres unmarked) [CBK282577]: the “% of control remaining” value is reported as 110.767.

As for `COc1ccc(NC(=O)CCSCCC(=O)O)cc1S(=O)(=O)N1CCCCC1` [CBK296655], the “% of control remaining” value amounted to 127.718.

For `Cc1cc(NS(=O)(=O)c2ccc(NC(=S)NC3CCCCC3)cc2)no1` [CBK268157], the “% of control remaining” value came to 59.8964.

`OC1CCC(Nc2cncc(-c3ccc(F)cc3F)n2)CC1` (centres unmarked) [CBK065835]: the “% of control remaining” value came out at 76.0598.

As to `Cc1nc(CCNc2ccc(-c3nc(C)c(C)c(=O)[nH]3)cn2)cs1` [CBK305497], the “% of control remaining” value came to 28.9001.

For `CCc1c(C)sc(NC(=O)CSc2nnnn2C)c1C(=O)OC` [CBK270312], the “% of control remaining” value was 84.5822.

`COc1ccccc1-c1nnc(SCc2cccc(C(=O)O)c2)[nH]1` [CBK269952]: the “% of control remaining” value was 101.548.

For the compound `N#C/C(=C\c1ccc(OCC(=O)c2ccccc2)cc1)c1nc(-c2cccs2)cs1` [CBK266765], the “% of control remaining” value is given as 64.1274.

Take `CCOCCn1c(=O)c2c(nc3oc(C(C)(C)C)cn32)n(C)c1=O` [CBK307567]: the “% of control remaining” value stood at 74.995.

For `CN1CCC(OCCCn2ccnc2-c2nccn2C)CC1` [CBK307683], the “% of control remaining” value is reported as 79.4561.

On to `O=C(CCN1C(=O)/C(=C\C=C\c2ccccc2)SC1=S)Nc1cc(Cl)ccc1O` [CBK264792], for which the “% of control remaining” value turned out to be 110.771.

For `COc1cc(CNc2nnn[nH]2)cc(Cl)c1OC` [CBK288087], the “% of control remaining” value was determined as 85.4485.

As to `Cn1nnnc1SCC(=O)Nc1ccc(Cl)c(Cl)c1` [CBK058218], the “% of control remaining” value was 55.8959.

Consider `CCCCN1CCC(CNc2cc(C(F)(F)F)c3scc(C(=O)NC4CCC4)c3n2)CC1` [CBK034026C], for which the “% of control remaining” value came to 45.7925.

As for `C[C@@H](Cn1nc2c(cc1=O)CCCC2)NC(=O)c1cccc(F)c1` [CBK284561], the “% of control remaining” value stood at 124.254.

`COc1cccc(CC(=O)Nc2ncccc2O)c1` [CBK305047]: the “% of control remaining” value stood at 49.7549.

Regarding `COc1ccc2[nH]cc(CCNC(=O)CC(C)O)c2c1` (centres unmarked) [CBK116201], the “% of control remaining” value was determined as 107.663.

For `CN1CC(=O)N2CCOC(C2)c2cccc(n2)NC(=O)C/C=C/CC2(CCN(Cc3ncc[nH]3)CC2)C1=O` (centres unmarked) [CBK292196], the “% of control remaining” value came out at 126.533.

As for `COc1ccc(-c2cnc(N)c(N[C@H](C)c3ccccc3)n2)c(OC)c1OC` [CBK063747], the “% of control remaining” value is listed as 66.0198.

As for `O=C(Nc1ccc2n(c1=O)C[C@H]1C[C@@H]2CN(C(=O)COc2ccccc2)C1)C1CCCCC1` [CBK289175], the “% of control remaining” value was found to be 108.832.

In the case of `CC(C)c1nn(C)c(N(C)C)c1CNCCc1cnn(C)c1` [CBK305135], the “% of control remaining” value was 53.8573.

Turning to `O=C(NCc1cccs1)c1ccc(-c2ccc(OC(F)(F)F)cc2)nc1` [CBK156221], the “% of control remaining” value amounted to 63.0311.

For `CS(=O)(=O)N1CCN(C2CCN(Cc3ccccc3)CC2)CC1` [CBK263485], the “% of control remaining” value came out at 111.539.

For `Cc1cc(C(F)(F)F)nc(CCNC(=O)N(Cc2ccsc2)C2CC2)n1` [CBK307468], the “% of control remaining” value is 57.8787.

On to `NC(=O)CN1CC2(CCN(C(=O)OCc3ccccc3)CC2)c2ccccc21` [CBK116309], for which the “% of control remaining” value is recorded as 69.7024.

Consider `COc1ccc(Oc2cncc(OC3CCN(CCc4ccc(F)cc4)C3)n2)cc1OC` (centres unmarked) [CBK084409], for which the “% of control remaining” value amounted to 93.2981.

With `CCn1c(S)nnc1CNC(=O)c1ccc(Cl)cc1Cl` [CBK267152], the “% of control remaining” value was 128.715.

Consider `Cc1ccnn1CCC(=O)N1CCCCC1c1nc2ccccc2[nH]1` (centres unmarked) [CBK282374], for which the “% of control remaining” value was determined as 97.1971.

Take `Cc1noc(C)c1C(=O)N(C)Cc1cc(-c2ccncc2)no1` [CBK306677]: the “% of control remaining” value is given as 79.3644.

Regarding `Cc1cccc(Cn2nc(C)c(NC(=O)c3ccncc3)c2C)c1` [CBK270126], the “% of control remaining” value was 105.581.

Consider `Cc1nc(NC(=O)Cn2c3c(c4ccccc42)CCC3)nn1C` [CBK281377], for which the “% of control remaining” value was 119.537.

In the case of `O=C(O)CNS(=O)(=O)c1ccc(F)cc1` [CBK034464], the “% of control remaining” value is 96.9807.

On to `Cc1nc(O)cc(C2CCN(C(=O)c3scc4c3CCCC4)CC2)n1` [CBK307452], for which the “% of control remaining” value came out at 88.2024.

On to `CCc1cc2c(NCc3ccccc3)ncnc2s1` [CBK057944], for which the “% of control remaining” value is 83.8572.

In the case of `COc1cccc(CN2CCN(S(=O)(=O)c3ccccc3[N+](=O)[O-])CC2)c1OC` [CBK264162], the “% of control remaining” value was 127.466.

As for `Cc1noc(C)c1NC(=O)c1cc2ccccc2[nH]1` [CBK200303], the “% of control remaining” value is 114.01.

Turning to `COc1ccc2[nH]cc(CCNC(=O)c3cncnc3)c2c1` [CBK122720], the “% of control remaining” value is on record as 107.348.

For `Cc1ccc(C(=O)O)cc1S(=O)(=O)N1CCC(C(=O)O)CC1` [CBK267327], the “% of control remaining” value is reported as 121.697.

On to `Cc1nc2sccn2c1CN(CCCN(C)C)Cc1ccco1` [CBK283199], for which the “% of control remaining” value stood at 49.1498.

Take `COc1ccc(C(=O)[C@@H]2CCCN(C(=O)OC(C)(C)C)C2)cc1` [CBK284308]: the “% of control remaining” value is listed as 73.212.

For the compound `O=C(CN1CC[C@H]2NC(=O)COc3ccccc3CCCC[C@@H]2C1)NCc1ccccn1` [CBK292046], the “% of control remaining” value was found to be 122.268.

Turning to `CCN1CC2(CCN(CC(N)=O)CC2)c2ccccc21` [CBK131485], the “% of control remaining” value came to 108.316.

On to `Cc1nn(CCC#N)c(C)c1CCC(=O)NCc1cn2ccccc2n1` [CBK304540], for which the “% of control remaining” value worked out at 47.1387.

Consider `O=C(N[C@H]1CCN2C(=O)N(c3cccc4nsnc34)C(=O)[C@@H]2C1)c1cccs1` [CBK289543], for which the “% of control remaining” value is 103.953.

In the case of `Cc1cccc2cc(CN(Cc3cccnc3)C(=O)Nc3ccccc3Cl)c(=O)[nH]c12` [CBK108869], the “% of control remaining” value is reported as 80.9833.

Turning to `Cc1ccc2c(c1)c(C(=O)N1CCn3nc(CO)cc3C1)nn2C` [CBK307134], the “% of control remaining” value is given as 63.6752.

As to `Cc1nccn1CC1(O)CCN(CC2=CCC3CC2C3(C)C)CC1` (centres unmarked) [CBK284981], the “% of control remaining” value is recorded as 90.0457.

As to `CC(C)S(=O)(=O)n1ccn(-c2cccc(C(F)(F)F)c2)c1=O` [CBK106577], the “% of control remaining” value came out at 86.641.

Take `COc1cc(C(=O)N2CCC3(CC2)NC(=O)c2cc(C)ccc2O3)cc(OC)c1C` [CBK166273]: the “% of control remaining” value stood at 47.4259.

As to `O=C(CNS(=O)(=O)Cc1ccccc1[N+](=O)[O-])Nc1ccc(F)cc1` [CBK042228], the “% of control remaining” value is 92.8367.

Regarding `CCN(Cc1ccccc1)Cc1ccco1` [CBK261884], the “% of control remaining” value is recorded as 102.1.

For `C1=C(CN2CCn3nc(CNc4cnccn4)cc3C2)CCCC1` [CBK307406], the “% of control remaining” value is 34.671.

In the case of `CC(=O)Nc1ccc(-c2csc(N3CCN(C)CC3)n2)cc1` [CBK305865], the “% of control remaining” value stood at 78.9588.

Take `CC(CC(=O)O)CC(=O)Nc1ccc(C(=O)O)cc1` (centres unmarked) [CBK265560]: the “% of control remaining” value came to 97.281.

Turning to `Cc1ccc(C2=NN(C(=O)CCC(=O)O)C(c3cc4cccc(C)c4[nH]c3=O)C2)cc1` (centres unmarked) [CBK296927], the “% of control remaining” value is 92.9793.

Consider `O=C(c1cccs1)N(Cc1ccco1)c1ccc(O)cc1` [CBK269256], for which the “% of control remaining” value is on record as 94.6358.

Consider `CCc1cc(C(=O)OC)c(NC(=S)Nc2nc3cc(C)c(C)cc3s2)s1` [CBK267116], for which the “% of control remaining” value turned out to be 122.432.

As to `Cc1nn(CC(=O)N2CCCCC2C)c(=O)c2cc3occc3n12` (centres unmarked) [CBK283622], the “% of control remaining” value is 93.1767.

For `CC(=O)Nc1ccc(S(=O)(=O)N2CCN(C/C=C/c3ccccc3)CC2)cc1` [CBK261545], the “% of control remaining” value was found to be 83.4418.

On to `Cc1ccccc1C(=O)NC(=S)Nc1sc2c(c1C#N)CCCC2` [CBK264403], for which the “% of control remaining” value was determined as 110.97.

With `CCn1ncc(CN2C3CCC2CC(O)(c2cccc(F)c2)C3)c1C` (centres unmarked) [CBK282754], the “% of control remaining” value is 102.128.
